Measurements from PubChem BioAssay AID1460 (National Center for Advancing Translational Sciences (NCATS), 2008).
In all, about 270,000 compounds went through this assay and about 5,800 (2.1%) were called active. The inconclusive results got no clear call from the source; some entries with a clear call stand among them for comparison. Calls follow the shape of the dose curve; as a rule, active = well fitted inhibition curve with a large enough effect; inconclusive = small, poorly fitted or top-dose-only effect; inactive = flat fitted curve, though single readings scatter. Potencies beside an inconclusive call are fits to weak or partial responses and may not hold up.
Also: nearly all actives have a fitted effect of over 55% in size.
Potency is read from the fitted curve at half-maximal effect; tags tell the direction and shape of the fitted curve.

These compounds were tested against Microtubule-associated protein tau (Homo sapiens) (UniProt P10636) (assay: qHTS for Inhibitors of Tau Fibril Formation, Thioflavin T Binding). Conditions: recombinant tau K18 P301L (four-repeat tau fragment), heparin-induced fibrillization, ThT fluorescence; series mostly up to 57.4 µM.
Chain of UniProt P10636 (P10636 whole entry, looked up, the tested form may be a part): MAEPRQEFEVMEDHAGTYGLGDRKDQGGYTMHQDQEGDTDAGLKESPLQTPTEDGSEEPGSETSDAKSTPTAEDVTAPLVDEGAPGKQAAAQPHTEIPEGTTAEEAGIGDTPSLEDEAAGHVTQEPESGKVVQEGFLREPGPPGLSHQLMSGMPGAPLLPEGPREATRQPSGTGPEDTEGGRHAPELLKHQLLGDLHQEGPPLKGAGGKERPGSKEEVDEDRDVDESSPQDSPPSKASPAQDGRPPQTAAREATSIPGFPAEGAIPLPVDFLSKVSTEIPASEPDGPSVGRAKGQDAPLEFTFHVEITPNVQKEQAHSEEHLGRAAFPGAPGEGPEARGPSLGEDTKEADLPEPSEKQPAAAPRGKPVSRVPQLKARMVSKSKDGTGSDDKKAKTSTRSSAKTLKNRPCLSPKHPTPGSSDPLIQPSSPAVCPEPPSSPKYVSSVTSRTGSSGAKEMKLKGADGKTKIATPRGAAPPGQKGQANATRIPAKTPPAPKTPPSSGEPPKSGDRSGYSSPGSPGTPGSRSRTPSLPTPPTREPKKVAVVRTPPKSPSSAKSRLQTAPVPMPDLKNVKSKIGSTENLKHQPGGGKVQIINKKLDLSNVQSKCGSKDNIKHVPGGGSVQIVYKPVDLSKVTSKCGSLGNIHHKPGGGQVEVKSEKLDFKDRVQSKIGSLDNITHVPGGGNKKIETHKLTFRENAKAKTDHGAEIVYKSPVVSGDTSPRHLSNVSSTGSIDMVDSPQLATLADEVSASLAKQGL
In short: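 Aggregation was driven by heparin (20 uM final) acting on recombinant tau […] bearing P301L in 100 mM sodium acetate pH 7; fibrils were detected with Thioflavin T.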
With `CCCCOC(=O)C1=C(C)NC2(O)c3ccccc3C(=O)C12O` (stereo not drawn) the Potency was active: 10 µM. `Cc1ccc(-c2nc(-c3ccccc3)no2)c(Cl)c1` was tested, and the Potency was “inactive”. `Oc1ccc(N=Cc2cc(Br)c(N3CCOCC3)o2)cc1` was tested, and the Potency was active: 3.16 µM. For `COc1ccc(C(=O)Oc2cccc3cccnc23)cc1[N+](=O)[O-]`, the Potency was inconclusive: 14.1 µM [inhibitor, partial curve, poor fit]. `O=C(CCCN1C(=O)/C(=C/c2ccccc2Cl)SC1=S)NNC(=O)c1cccnc1` was tested, and the Potency was inconclusive: 1.26 µM [inhibitor, full curve, poor fit]. `O=C(OCc1cc(=O)n2nc(C3CCCCC3)sc2n1)c1ccccc1Cl` was tested, and the Potency was inconclusive: 1.58 µM [inhibitor, full curve]. For `Cc1ccccc1NC(=O)c1cccc2nc3ccccc3nc12`, the Potency was active: 8.91 µM. `Cc1ccc(-c2ccc(SCC(=O)N3CCCc4ccccc43)nn2)cc1` was tested, and the Potency was inconclusive: 11.2 µM [inhibitor, partial curve]. For `COc1cc(S(=O)(=O)NCCCN2CCOCC2)ccc1-n1cnnn1`, the Potency was “inactive”. For `O=C(NC(=S)N1CCN(c2ccc(F)cc2)CC1)c1cccs1`, the Potency was inconclusive: 44.7 µM [inhibitor, single point]. `Cc1nnc(SCc2ccc(Cl)cc2)nc1/C=C/N(C)C` was tested, and the Potency was inconclusive: 31.6 µM [inhibitor, single point]. In the case of `O=C(OCc1ccccc1)c1cn(-c2ccccc2)nc1-c1ccncc1`, the Potency is reported as “inactive”. For `CC(C)CC(=O)n1nc(-c2cccnc2)nc1NCc1ccc(F)cc1`, the Potency was inconclusive: 22.4 µM [inhibitor, partial curve]. For `Cc1ccc(NC(=O)CCCn2c(=O)c3cccn3c3ccccc32)cc1C`, the Potency was “inactive”. `C/C(=N\NC(=O)c1c[nH]c2ccccc12)c1ccc(C)o1` was tested, and the Potency was inconclusive: 2.51 µM [inhibitor, full curve]. With `O=C(Nc1ccccc1)c1nnsc1S(=O)c1ccc(Cl)cc1` (stereo not drawn) the Potency was “inactive”. `Cc1ccc(N2CCN(C(=O)c3ccccc3F)CC2)c(C)c1` was tested, and the Potency was inconclusive: 31.6 µM [inhibitor, single point]. `CCN(CC)/C(Sc1ccccc1)=C(\C(Cl)=C(Cl)Cl)[N+](=O)[O-]` was tested, and the Potency was “inactive”. With `CCOc1ccc(NC(=O)CC2Nc3ccccc3NC2=O)cc1` (stereo not drawn) the Potency was inconclusive: 11.2 µM [inhibitor, partial curve]. With `CCN1CCCc2cc(CN(CCN3CCOCC3)C(=S)Nc3ccc(C)cc3)ccc21` the Potency was inconclusive: 28.2 µM [inhibitor, single point]. In the case of `Cc1cc(C)cc(NS(=O)(=O)c2ccc3[nH]cc(C(=O)NC4CCCCC4)c(=O)c3c2)c1`, the Potency is reported as inconclusive: 28.2 µM [activator, partial curve, poor fit]. With `CCN(CC)CCCNc1oc(-c2ccccc2[N+](=O)[O-])nc1C#N` the Potency was inconclusive: 0.447 µM [inhibitor, partial curve]. With `N#CC1=C(N)N=C(SCc2ccccc2)C(C(N)=O)C12CCCCC2` (stereo not drawn) the Potency was “inactive”. In the case of `O=C1Cc2cc(CCN3CCN(c4nsc5ccccc45)CC3)c(Cl)cc2N1`, the Potency is reported as inconclusive: 12.6 µM [inhibitor, partial curve]. In the case of `O=C1CCCCc2sc(Br)c([N+](=O)[O-])c2N1`, the Potency is reported as inconclusive: 12.6 µM [inhibitor, partial curve]. For `CCCCOc1ccc(CNC(=S)N/N=C/c2ccc(OC)c(OC)c2)cc1`, the Potency was “inactive”. `Cc1nn(-c2ccccc2)c(N2CCCC2)c1/C=N/NC(=O)c1cc2ccccc2cc1O` was tested, and the Potency was “inactive”. With `CC[C@@H](C)[C@H]1O[C@]2(CC[C@@H]1C)C[C@@H]1C[C@@H](C/C=C(\C)[C@@H](O[C@H]3C[C@H](OC)[C@@H](O[C@H]4C[C@H](OC)[C@@H](O)[C@H](C)O4)[C@H](C)O3)[C@@H](C)/C=C/C=C3\CO[C@@H]4[C@H](O)C(C)=C[C@@H](C(=O)O1)[C@]34O)O2` the Potency was inconclusive: 39.8 µM [inhibitor, single point]. `CCc1ccc(NC(=S)Nc2cc(C(=O)O)ccc2N2CC3CC(C2)c2cccc(=O)n2C3)cc1` (stereo not drawn) was tested, and the Potency was “inactive”. For `N#Cc1c(C(F)(F)F)cc(-c2cccs2)nc1SCC(=O)Nc1ccccc1F`, the Potency was inconclusive: 12.6 µM [inhibitor, partial curve]. In the case of `Cc1ccccc1CSCCNC(=O)CSCc1ccc([N+](=O)[O-])cc1`, the Potency is reported as inconclusive: 31.6 µM [inhibitor, partial curve]. For `CCOC(=O)c1sc(NC(=S)NC(=O)CC(C)C)cc1C`, the Potency was inconclusive: 2.82 µM [inhibitor, partial curve]. With `O=c1cc(O)n(-c2ccc(Cl)cc2)c(=S)[nH]1` the Potency was inconclusive: 0.794 µM [inhibitor, full curve, poor fit]. For `CCc1ccc(O)c(C(=O)c2cnc3cc(-c4ccc(C)cc4)nn3c2)c1`, the Potency was “inactive”. For `CCC(=O)Oc1ccc2c(c1)OC1(OC(C)=O)OC(C)CC1=C2C` (stereo not drawn), the Potency was inconclusive: 28.2 µM [inhibitor, single point]. In the case of `COC(=O)CSc1ccc(-c2nc3ccc(C)cc3[nH]2)cn1`, the Potency is reported as inconclusive: 2.24 µM [inhibitor, full curve]. For `CCCCCC(=O)N1CC2(C)CN(C(=O)CCCCC)CC(C)(C1)C2=O`, the Potency was “inactive”. `COC(=O)c1ccc(NC(=O)CSc2nc3cccnc3n2C)cc1` was tested, and the Potency was inconclusive: 3.55 µM [inhibitor, full curve]. In the case of `O=c1c(-c2ccc(O)cc2O)coc2cc(O)cc(O)c12`, the Potency is reported as inconclusive: 12.6 µM [inhibitor, single point]. In the case of `CC(=O)Nc1ccc(S(=O)(=O)Nc2nc3ccccc3nc2-n2ccc(=NC(=O)c3ccc(F)cc3)cc2)cc1`, the Potency is reported as inconclusive: 17.8 µM [inhibitor, partial curve]. `CCCCOc1c(Br)cc(/C=C2\N=C(C)OC2=O)cc1OCC` was tested, and the Potency was “inactive”. For `CCOc1ccc2nc(SCC(=O)Nc3cccc(S(=O)(=O)NC4=NCCCCC4)c3)[nH]c2c1`, the Potency was inconclusive: 10 µM [inhibitor, partial curve]. With `CCN(CC)C(=O)c1sc2c(c1C)c(=O)n(CCc1ccccc1)c(=O)n2Cc1ccc(F)cc1Cl` the Potency was “inactive”.
